PubChem BioAssay AID1508642 (National Center for Advancing Translational Sciences (NCATS), 2021)
Among all 43,000 compounds or so, about 200 (0.47%) were called active. Roughly 12% stayed inconclusive and do not appear here. Calls come from the whole dose curve; as a rule, active = well fitted cell-killing curve with a large enough effect; inconclusive = small, poorly fitted or top-dose-only effect, or effect the other way; inactive = flat fitted curve, though single readings scatter. Some of the results follow.

Assay: Cell viability qHTS assay in S16 Pmp22-F2sN cells; note: nearly all actives have a fitted effect of over 65% in size
Conditions: S16 Pmp22-F2sN Schwann cells (luciferase reporters placed in the Pmp22 gene) viability, CellTiter-Glo, 24 h; series mostly up to 57.5 µM; activity change, negative = cytotoxicity: at the top concentration
In short: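 Seed 500-1,000 S16 Pmp22-F2sN cells per well in phenol-red-free DMEM with 10% heat-inactivated FBS; pin-add 23 nL compound; incubate 24 h at 37C; add CellTiter-Glo, wait 15 min protected from light; read luminescence.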
% is set by controls: 0 for no effect and ±100 for the full control effect; potency is the fitted concentration of half-maximal effect.

Structure (SMILES)	activity change, negative = cytotoxicity	Potency
CCC12CN3CC(C)(CN(C1)C3c1ccccc1C)C2=O (stereo unspecified)	inactive: 8.52%	
Cc1ccccc1-c1nc2cc(NC(=O)c3cccc(OCCC(C)C)c3)ccc2o1	inactive: 2%	
Cc1ccc(S(=O)(=O)c2cnc(SC(C)C(=O)Nc3ccccc3)[nH]c2=O)cc1 (stereo unspecified)	inactive: -0.0019%	
CCC(Cn1nnc2ccccc2c1=O)NC(=O)Nc1ccc(C)cc1 (stereo unspecified)	inactive: -0.0933%	
CCOc1ccc(OCC)c(NC(=O)c2cc(CN3CCOCC3)on2)c1	inactive: 7.94%	
O=C(CSc1nnc(CNC(=O)c2ccccc2F)n1-c1ccccc1)Nc1ccccc1F	inactive: -4.21%	
CCCNC(=O)CCn1nc(-c2ccccc2)c2ccccc2c1=O	inactive: -7.38%	
O=C(CCc1nnc2n(Cc3ccccc3Cl)c(=O)c3ccccc3n12)Nc1ccc(F)cc1	inactive: 9.07%	
CC(=O)C1=C(c2ccc(Cl)c(Cl)c2)N(C(C)=O)n2c(nnc2C2CCCCC2)S1	inactive: 10.4%	
CCCc1ccc(OC(C)C(=O)Nc2sc3c(c2C(=O)OC)CCCCC3)cc1 (stereo unspecified)	inactive: 6.91%	
CCN1CCN(c2csc3ccc(C)cc3c2=O)CC1	inactive: 13.9%	
Cc1ccc(-n2ncc(C(=O)Nc3ccc4c(c3)OCCO4)c2C2CCN(C(=O)OC(C)(C)C)CC2)cc1	inactive: -20.4%	
COc1ccc(Br)cc1CNC(=O)CSc1cc(=O)n(C)c2ccccc12	inactive: 3.19%	
Cc1ccccc1-c1noc(-c2cc3ccccc3oc2=O)n1	inactive: 9.91%	
CCCCNC(=O)c1nn(-c2ccc(C)cc2)c(=O)c2c1c1ccccc1n2C		active: 15.8 µM
Cc1cccc(CNC(=O)c2cccc(NC(=O)N3CCSc4ncccc43)c2)c1	inactive: -0.829%	
CSc1nc(Nc2cccc(C)c2)c(C#N)c(-c2ccccc2)n1	inactive: -4.51%	
CNc1c(NC(=O)c2cc(OC)cc(OC)c2)c(=O)oc2ccccc12	inactive: 9.6%	
Cn1c(SCC(=O)N2CCCc3ccccc32)ncc(C(=O)Nc2ccc(F)cc2)c1=O	inactive: -3.3%	
CC(=O)Nc1c(C)nn(-c2ccccc2)c1N1CCC(C(=O)Nc2ccc(F)cc2Cl)CC1	inactive: -1.41%	
Cc1cccc(NC(=O)N2CCC(CN3CCC(C)CC3)CC2)c1C	inactive: 12.3%	
COc1ccc2c(c1)c(=O)c(S(=O)(=O)c1ccc(Cl)cc1)cn2C	inactive: -10.1%	
Cc1ccccc1CNC(=O)C1CCN(c2nnc(-n3c(C)ccc3C)s2)CC1	inactive: -3.97%	
CCOC(=O)c1cccc(NC(=O)c2cc3cc4ccc(C)cc4nc3o2)c1	inactive: 9.94%	

Structure (SMILES)	activity change, negative = cytotoxicity	Potency
CCCn1c(SCc2nc(-c3cc(OC)ccc3OC)no2)nnc1-c1ccc(Cl)cc1	inactive: -9.17%	
CCc1cccc(CC)c1NC(=O)C(CC)n1nc(C)n2c(cc3cc(C)ccc32)c1=O (stereo unspecified)	inactive: -0.449%	
Cc1ccc2c(c1)C(c1ccccc1)N(C(=O)c1ccccc1F)CC(=O)N2 (stereo unspecified)	inactive: -10.5%	
Cc1ccccc1NC(=O)CSc1nnc(C)c(=O)[nH]1	inactive: -0.167%	
O=C(NCc1ccco1)C1CCN(C(=O)N2CCOc3ccccc32)CC1	inactive: 12%	
Nc1c(-c2nc(-c3cccs3)no2)nnn1-c1ccccc1Cl	inactive: 4.47%	
Cc1ccc(Cl)cc1N(C)C(=O)Cn1nc(Cc2cccnc2)c2ccccc2c1=O	inactive: 25.2%	
CCOc1cccc(CNC(=O)c2ccc(N3CCCC3)c(NC(=O)NCc3ccc(F)cc3)c2)c1	inactive: 8.85%	
O=C(Nc1cccc(C(=O)OCc2cc(=O)n3nc(C4CC4)sc3n2)c1)c1ccccc1	inactive: 0.665%	
Cc1cc(C)cc(OC(C)C(=O)Nc2nonc2-c2ccc(Br)cc2)c1 (stereo unspecified)	inactive: -3.65%	
CCOc1ccc(-c2nonc2NC(=O)c2oc3c(C)c(C)ccc3c2C)cc1OCC	inactive: -1.6%	
Cc1ccc(C)c(Cn2c3ccccc3c3cnn(CC(=O)NCCCc4ccccc4)c(=O)c32)c1	inactive: 4.48%	
COc1ccccc1-c1nc2c3c(-c4ccccc4)c(-c4ccccc4)oc3ncn2n1	inactive: 2.05%	
COCCn1c(CNC(=O)c2ccc(C)cc2)nc2cccnc21	inactive: 11.2%	
Cc1ccc(-n2nc(C)c(C(=O)NCCCN3CCN(c4ccc(F)cc4)CC3)c2-n2cccc2)cc1	inactive: -29.5%	
Cc1ccccc1CS(=O)(=O)CC1Nc2ccc(C(=O)NCc3ccc(Cl)cc3)cc2NC1=O (stereo unspecified)	inactive: -0.997%	
COc1ccc(N2CCN(c3oc(/C=C/c4ccc(F)cc4)nc3C#N)CC2)cc1	inactive: 10.9%	
CCc1ccc(CN(Cc2ccco2)C(=O)c2ccc(OC)cc2)cc1	inactive: 4.94%	
Cc1nnc(SCc2ccccc2)c2cc3sccc3n12	inactive: -19.4%	
CCOc1cc(C(=O)N2CC(=O)Nc3ccc(C)cc3C2c2ccccc2)cc(OCC)c1OCC (stereo unspecified)	inactive: -11.5%	
CCc1ccc(CNC(=O)CCC(=O)N2Cc3cccc(OC)c3Oc3ncccc32)cc1	inactive: 7.71%	
Cc1ccc(C(=O)NCCc2ccc(Cl)cc2)cc1-n1c(C)nc2cccnc21	inactive: 2.77%	
COc1cc(-c2noc(-c3ccc(NCc4ccccc4)c([N+](=O)[O-])c3)n2)cc(OC)c1OC	inactive: 13.3%	
CCOc1ccc(NC(=O)CCNS(=O)(=O)c2ccc3c(c2)oc(=O)n3C)cc1	inactive: 3.53%	

Structure (SMILES)	activity change, negative = cytotoxicity	Potency
CCOc1ccc(-c2nn(CC(=O)NC3CCCCC3)c3c2cnc2ccc(C)cc23)cc1	inactive: 1.1%	
CCCn1c2ccccc2c2cnn(CC(=O)NCCc3ccc(OCC)cc3)c(=O)c21	inactive: 9.85%	
COc1ccc(NC(=O)Cn2nnc3sc4c(c3c2=O)CCC(C)C4)c(OC)c1 (stereo unspecified)	inactive: 12.5%	
COc1ccccc1CNC(=O)c1ccc2c(c1)N(Cc1cccc(C)c1)C(=O)c1ccccc1S2(=O)=O	inactive: 13.2%	
COc1ccc(Cl)cc1NC(=O)c1sc(-n2nc(C)c(Cc3ccccc3)c2C)nc1C	inactive: 13.8%	
Cc1ccc(C)c(Cn2c3ccccc3c3cnn(CC(=O)NCCC4=CCCCC4)c(=O)c32)c1	inactive: -2.62%	
COc1ccc(OC)c(CCNC(=O)c2ccc3c(c2)N(Cc2ccc(C)cc2)CCS3)c1	inactive: -3.76%	
COc1ccc(F)cc1S(=O)(=O)NCCc1c(C)[nH]c2c(Cl)cccc12	inactive: -1.29%	
Cc1cc(C)cc(NC(=O)CSc2nc3c(oc4ccccc43)c(=O)n2-c2ccccc2F)c1	inactive: 0.0406%	
COc1ccc2cc3cc(C(=O)NCc4ccc(C)cc4)oc3nc2c1	inactive: 0.94%	
CCOC(=O)N1CCC(NC(=O)c2c(C)nn(-c3ccc(C)cc3)c2-n2cccc2)CC1	inactive: -11.3%	
CCOCCCNC(=O)C1CCN(c2nn3cc(-c4ccc(F)cc4)nc3s2)CC1	inactive: -3.28%	
COc1ccc(Nc2cc(C(=O)NCCc3ccc(C)cc3)c3ccccc3n2)c(OC)c1	inactive: -0.339%	
CCc1ccc(S(=O)(=O)c2cn(CC(=O)Nc3ccc(C)cc3)c3ccccc3c2=O)cc1	inactive: 19.4%	
COC(=O)c1scc(-c2ccc(C)cc2)c1S(=O)(=O)Nc1cc(Cl)ccc1C	inactive: 14.1%	
Cn1c(=O)c(=O)n(C)c2cc(N3CCOCC3)c(NS(=O)(=O)c3ccc(Cl)cc3)cc21	inactive: 4.36%	
Cc1ccc(CNC(=O)c2ccc3nc(N4CCCCC4)sc3c2)cc1	inactive: -18.5%	
COc1cccc(C(c2sc3nc(-c4ccco4)nn3c2O)N2CCC(O)CC2)c1 (stereo unspecified)	inactive: -0.827%	
CCOc1ccc(CCNC(=O)c2ccc3c(Cl)c4c(nc3c2)CCCC4)cc1	inactive: 12.5%	
CCOC(=O)c1ccc(NC(=O)c2c(NC(C)=O)sc3c2CCC(C)C3)cc1 (stereo unspecified)	inactive: 6.87%	
O=S(=O)(NCCc1nnc2ccc(SCc3ccc(Cl)cc3Cl)nn12)c1ccccc1	inactive: -16.8%	
CCOc1ccccc1NC(=O)c1sc2nc3n(c(=O)c2c1C)CCCCC3	inactive: 17.2%	
COc1ccc(CCNS(=O)(=O)c2ccc3c(c2)CC(C)N3C(=O)C2CCC2)cc1OC (stereo unspecified)	inactive: -19%	
CCOc1ccc(CC(=O)NCCc2csc(-c3ccc(C)cc3)n2)cc1	inactive: -14.3%	

Structure (SMILES)	activity change, negative = cytotoxicity	Potency
COc1ccc(S(=O)(=O)n2nc(C)c(S(=O)(=O)N3CCC(C)CC3)c2C)cc1C	inactive: 1.54%	
CCC(=O)Nc1c(C(=O)N2CCN(c3ccc(F)cc3)CC2)oc2ccccc12	inactive: -5.22%	
CCOc1ccc(N(C(=O)CC(C)C)S(=O)(=O)c2ccc3c(c2)oc(=O)n3C)cc1	inactive: 4.55%	
COc1ccc(CCNC(=O)CCCn2c(=O)c3ccccc3n(Cc3cccc(Cl)c3)c2=O)cc1OC	inactive: 6.84%	
COc1ccc(NC(=O)Cn2nnc(C(=O)Nc3ccc(F)c(Cl)c3)c2N)cc1OC	inactive: 7.58%	
Cc1ccc(NC(=O)Cn2cc(C(=O)C3CC3)c3ccccc32)cc1	inactive: 8.36%	
Cn1c(SCc2ccc(F)cc2)nc2ccc(C(=O)NCc3ccc(Cl)cc3)cc21	inactive: -25%	
COc1ccc(-c2noc(CN(C(=O)COc3cc(C)c(Br)c(C)c3)C(C)C)n2)cc1	inactive: -20%	
CCCn1c(SCc2nc(-c3ccc(OC)cc3OC)no2)nnc1-c1ccc(Cl)cc1	inactive: -17.4%	
Cc1cccc(C)c1NC(=O)CSc1nc(-c2ccccc2)nc2c1Cc1c(CO)cnc(C)c1O2	inactive: 4.65%	
O=C1NCCN(Cc2ccc(F)cc2)C1=O	inactive: 2.49%	
Cc1ccc2[nH]c(CSc3nnc(NC(=O)COc4ccccc4)s3)cc(=O)c2c1	inactive: -13.2%	
COc1ccc(-n2c(SCC(=O)Nc3ccc(Cl)c(C)c3)nc3n[nH]c(C)c3c2=N)cc1	inactive: -11%	
NC(=O)c1c(NC(=O)c2nc(SCc3ccccc3F)ncc2Cl)sc2c1CCCC2	inactive: 12.5%	
COc1cc(C(=O)NCCCc2nc3ccccc3n2CC(C)C)cc(OC)c1OC	inactive: 2.85%	
O=C(C1CCN(S(=O)(=O)c2ccc(Br)s2)CC1)N1CCN(c2cccc(Cl)c2)CC1	inactive: -24%	
Cc1ccc(Sc2c(C)nn(C(=O)COc3ccccc3Br)c2C)cc1	inactive: -0.468%	
CCOc1ccc(CCNC(=O)c2sc3nc4n(c(=O)c3c2C)CCCC4)cc1OCC	inactive: 2.12%	
CCOC(=O)c1ccc(NC(=O)CCn2c(=O)c3cccn3c3ccccc32)cc1	inactive: -2.94%	
COc1ccc(OC)c(CNC(=O)c2nn(-c3ccc(OC)c(Cl)c3)c(=O)c3c2c2ccccc2n3C)c1	inactive: 14%	
CCCCn1cc(S(=O)(=O)c2ccc(C)c(C)c2)c(=O)c2cc(F)c(N3CCCC(C)C3)cc21 (stereo unspecified)	inactive: 14.4%	
CCS(=O)(=O)N1CCc2cc(C(=O)Nc3ccc(OC)c(Cl)c3)ccc21	inactive: -20.2%	
CCOc1ccc2nc(N3CCCC(C(=O)Nc4c(C)cccc4C)C3)sc2c1 (stereo unspecified)	inactive: -4.21%	
CCOC(=O)c1sc2ncn(CC(=O)Nc3ccc(N(C)C)cc3)c(=O)c2c1C	inactive: 17.2%	
